Measured values published in PubChem BioAssay AID1362 (SRMLSC, 2008).
Some of the results follow. Shown are side measurements of this screen, not its main read-out; they come without a call. The list favours compounds with an active or inconclusive main result.

experiment: growth inhibition of WT strain, primary screen, mitochondrial fusion inhibitor project, WT and mutant strains, chemical genetic (AID 1362); conditions: mitochondrial fusion phenotypic screen, at 10 µM; also: tested in S. cerevisiae

Row | SMILES | inhibition
1 | COc1ccc(Nc2nc(N3CCCCC3)c3ccccc3n2)cc1 | 59.9%
2 | COc1cccc(-c2csc(N3CCN(C(=O)Nc4ccc(Cl)cc4)CC3)n2)c1 | 32.4%
3 | Cc1cc(C(=O)Nc2nc(-c3ccccn3)cs2)ccc1[N+](=O)[O-] | 55.6%
4 | OCCN(Cc1ccccc1)CC(O)COc1ccc(-c2ccccc2)cc1 (stereo not drawn) | 56.6%
5 | Oc1ccc(C[C@@H]2CNC(=S)N2CCCCC2CCCCC2)cc1 | 82.3%
6 | CCCCNC(=O)C1CCN(S(=O)(=O)c2cnc[nH]2)CC1 | 3.31%
7 | CC(C)CNC(=O)c1oc2ccccc2c1COc1ccccc1 | 16.9%
8 | Cc1ccnc(NS(=O)(=O)c2ccc(N=CC3=C(O)CC(C)(C)CC3=O)cc2)n1 | 3.94%
9 | Cc1ccc(-n2cc(CN3CCN(Cc4nccn4C)CC3)c(-c3cccc(C)c3)n2)cc1 | 20%
10 | N/C(Cc1ccc([N+](=O)[O-])cc1)=N\OC(=O)c1ccc2ccccc2c1 | 74.9%
11 | CCOC(=O)c1cccc2c1-c1ccccc1/C2=N/O | 61.4%
12 | Cc1c(C)c2cc(Cl)c(O)c(CN3CCCC(C)C3)c2oc1=O (stereo not drawn) | 2.77%
13 | C=CCN(C(=O)c1cccc(S(=O)(=O)N2CCN(C)CC2)c1)c1nc(-c2ccccc2)cs1 | 11.8%
14 | O=C(CN1C(=O)CCC1=O)NNc1ccc2ccccc2c1 | 49.4%
15 | OC(COc1ccc2ccccc2c1Br)Cn1ccnc1 (stereo not drawn) | 50.9%
16 | O=C(NC(=S)NC1C2CC3CC(C2)CC1C3)C12CC3CC(CC(C3)C1)C2 (stereo not drawn) | 36.4%
17 | CCCCNC(=S)NCc1ccc2[nH]c3c(c2c1)CCCC3 | 43.2%
18 | N#CC(Sc1ccccn1)c1ccc(Cl)cc1 (stereo not drawn) | 45.2%
19 | CC(C)Cn1c(N)c(C(=O)COC(=O)CC23CC4CC(CC(C4)C2)C3)c(=O)n(C)c1=O | 36.8%
20 | S=c1[nH]nc(-c2cc3ccccc3o2)n1Cc1ccccc1 | -37.4%
21 | CC1=C/C(=N\Nc2ccccc2[N+](=O)[O-])CC(C)(C)C1 | 37.5%
22 | COc1cc(CNCCO)cc(Br)c1OCc1ccccc1Cl | 19.1%

Row | SMILES | inhibition
23 | COc1ccccc1N1CCN(C(=O)c2oc3cc(C)cc(C)c3c2C)CC1 | -2.7%
24 | FC(F)(F)c1cc(CCN2C(=S)NC[C@@H]2Cc2ccccc2)cc(C(F)(F)F)c1 | 24.3%
25 | Cc1nc2ccc(NC(=O)COc3ccccc3)cc2s1 | 73.1%
26 | CCOC(=O)C1=C(C)NC(=S)NC1c1ccc(-c2ccc(Cl)cc2)o1 (stereo not drawn) | 15.4%
27 | OCCNCc1ccc(OCc2ccc(Cl)cc2Cl)cc1 | 64.4%
28 | Cc1cc(NC(=O)c2ccccc2-c2ccccc2)ccc1Br | 56.1%
29 | S=c1nc(SCc2ccccc2)[nH]c2ccccc12 | 55%
30 | Cc1cccc(C)c1-n1nnnc1C1(Nc2ccccc2)CCCCC1 | 27.3%
31 | CCOC(=O)c1cnc(-c2ccccc2)nc1-c1ccccc1 | 1.86%
32 | Cc1cccc(N2CCN(C(=O)COc3ccc4c(c3)CCC4)CC2)c1C | 5.49%
33 | C=CCn1c(SCC(N)=O)nc(C)cc1=O | 16%
34 | Cc1ccc(S(=O)(=O)c2c(C)cc(C)nc2Oc2cccc(C)c2C)cc1 | 6.68%
35 | Cc1ccc(C(C)C)c(OC(=O)/C=C/c2ccccc2)c1 | 63.3%
36 | Cc1cc(NC(=O)c2sccc2C)n(-c2nc3ccccc3[nH]2)n1 | 75.1%
37 | CC(Oc1ccc(Cl)cc1Cl)c1nc(-c2ccc(NC(=O)c3ccco3)cc2)no1 (stereo not drawn) | 67.1%
38 | Fc1ccccc1C1c2cccn2CCN1C(=S)Nc1ccc(Br)cc1 (stereo not drawn) | 53.3%
39 | CCOC(=O)C1CCCN(c2c(C(=O)c3ccccc3)cnc3ccccc23)C1 (stereo not drawn) | -2.15%
40 | CCOc1c(OC(C)=O)ccc(/C=C/c2ccc3cccc(OC(C)=O)c3n2)c1[N+](=O)[O-] | 14%
41 | CCNc1nc(NC(C)(C)C)nc(N2CCCCC2)n1 | 71.2%
42 | CNc1nc(-c2ccc(OC)cc2)c(-c2ccc(OC)cc2)s1 | 34.9%
43 | CCn1c(CNC(=O)c2ccco2)nnc1SCC(=O)Nc1cc(C(F)(F)F)ccc1Cl | -5.01%
44 | CCOC(=O)C1=C(C)C(c2cccc(Oc3ccccc3)c2)NC(=S)N1 (stereo not drawn) | 0.79%

Row | SMILES | inhibition
45 | CN(C1=C(NC(=O)c2ccc(Cl)cc2)C(=O)c2ccccc2C1=O)c1ccccc1 | 30.9%
46 | CCC(=O)Nc1cccc(C(=O)/C=C/c2cc(Br)ccc2OC)c1 | 55.8%
47 | CC(c1ccccc1)N(CCC(c1ccccc1)C1CCOC(C)(C)C1)C(=O)c1ccco1 (stereo not drawn) | -3.75%
48 | O=C(NC(NNc1ccc([N+](=O)[O-])cc1)(C(F)(F)F)C(F)(F)F)c1ccc(Cl)cc1 | 43.6%
49 | Cc1ccccc1OCCNc1cc(N2CC(C)NC(C)C2)ccc1[N+](=O)[O-] (stereo not drawn) | 83.9%
50 | CCS(=O)(=O)Nc1ccc(-c2cc(-c3ccccc3)c3cc(C)ccc3n2)cc1 | 10.2%
51 | CCc1ccc(NC(=O)c2cc3c(C)nc4ccccc4c3o2)cc1 | 12.7%
52 | Cc1ccc(-n2nnnc2SCC(=O)N2CCc3ccccc3C2)c(C)c1 | 51.4%
53 | Cc1cc(S(=O)(=O)N2CCN(c3ccccc3C)CC2)ccc1F | 32.6%
54 | C/C(=N\NC(=S)NC1CCCCC1)c1cccs1 | 66.5%
55 | CCOC(=O)C1=C(NC(=S)NC(=O)c2ccccc2)c2ccccc2CC1(C)CC (stereo not drawn) | 7.46%
56 | COc1cc(SC)ccc1C(=O)NCC1CCCO1 (stereo not drawn) | 9.87%
57 | CCOc1ccc(NC(=S)NCCCc2ccccc2)cc1 | 46.6%
58 | CCOP(=O)(c1ccccc1)c1nc(-c2ccccc2Cl)oc1N1CCCCC1 (stereo not drawn) | 18.6%
59 | Cc1noc(C)c1C(=O)OCC(=O)Nc1ccccc1Oc1ccccc1 | 50.7%
60 | CCN(CC)CCOc1ccc(/C(=C(/Cl)c2ccccc2)c2ccccc2)cc1 | 97.1%
61 | CC(C)(C)[C@H]1C=C(C(=O)N2CCN(Cc3ccc4c(c3)OCO4)CC2)O[C@@H](OCc2ccc(CO)cc2)C1 | 24.9%
62 | O=C(COC(=O)c1ccc([N+](=O)[O-])s1)Nc1ncc(C(F)(F)F)cc1Cl | 1.77%
63 | CC(NC(=O)Nc1nnc(C(F)(F)F)s1)(C(F)(F)F)C(F)(F)F | 41%
64 | COc1cc(C=C(c2nc3ccccc3s2)c2nc3ccccc3s2)cc(OC)c1O | 26.8%
65 | O=C(C1=C[C@H](C2CCCCC2)C[C@H](OCc2ccc(CO)cc2)O1)N1CCN(Cc2ccc3c(c2)OCO3)CC1 | 29.5%
66 | NNC(=O)/C(=N/Nc1ccccc1)S(=O)(=O)c1ccc(Cl)cc1 | 66%

Row | SMILES | inhibition
67 | CCc1c(C)sc(NC(=S)N2CC(C)OC(C)C2)c1C(=O)OC (stereo not drawn) | 49.6%
68 | C/C(=N\NC(=S)NC1CCCCC1)c1c(F)cccc1F | 31.7%
69 | c1ccc(-c2noc(-c3ccc4c(c3)OCO4)n2)nc1 | 49.4%
70 | O=c1oc2cc(O)ccc2cc1-c1nc2c(s1)CCc1ccccc1-2 | 96.9%
71 | Fc1ccc(C2c3cccn3CCN2C(=S)Nc2cccc(Br)c2)cc1 (stereo not drawn) | 58.8%
72 | S=c1[nH]nc(COc2ccccc2)n1/N=C/C=C/c1ccccc1 | 38.1%
73 | CN1CCN(C2=Cc3cc(Cl)ccc3Sc3cc(F)ccc32)CC1 | 95.3%
74 | O=c1cc(N2CCCCC2)c(-c2ccccc2)nn1Cc1cccc(Cl)c1 | 37%
75 | Cc1ccc(O)c(C(=O)/C=C/c2ccc3c(c2)OCCO3)c1 | 24%
76 | COc1ccc2c(c1)CCC1=C2NC(=S)NC1c1ccc(N(C)C)cc1 (stereo not drawn) | 79.1%
77 | O=C(Nc1ccc(F)cc1)c1ccccc1Oc1ccc(C(F)(F)F)cc1[N+](=O)[O-] | -0.42%
78 | COc1ccccc1NC(=O)COC(=O)c1ccc([N+](=O)[O-])s1 | 22.8%
79 | O=C(Nc1nnc(C(F)(F)F)s1)c1ccc(Br)s1 | 59.6%
80 | CCc1nnc(NC(=O)c2ccc(S(=O)(=O)N(CC(C)C)CC(C)C)cc2)o1 | -18.1%
81 | CCOCCCNC(=S)NCCCNc1nc2c(C)c(C)ccc2cc1C#N | 55.3%
82 | O=[N+]([O-])/C=C/c1c(OCc2ccccc2)ccc2ccccc12 | 69.4%
83 | CC1CCCN(C(=O)CSc2nnc(-c3cccnc3)n2C2CCCCC2)C1 (stereo not drawn) | -16.5%
84 | c1ccc2cc(CSCc3nc4ccccc4[nH]3)ccc2c1 | 60.2%
85 | CCOc1nc(NC2CCCCC2)nc(NC(C)(C)C)n1 | 35.9%
86 | c1ccc(C(c2ccccc2)c2nc(-c3cccnc3)no2)cc1 | 67.4%
87 | Brc1ccc2c(c1)OCCOCCOc1cc(Br)ccc1OCCOCCOCCO2 | 79.8%
88 | O=C(COc1ccc(-c2ccccc2)cc1)N/N=C/c1cc(O)ccc1Br | 94%

Row | SMILES | inhibition
89 | O=C(Nc1ccccc1N1CCOCC1)c1cccc(F)c1 | 25.2%
90 | COCC(=O)N1CCCC(C(=O)c2ccc(-c3ccccc3)c(F)c2)C1 (stereo not drawn) | 53%
91 | CN1/C(=C\C(=O)Nc2cccc(Cl)c2)C(C)(C)c2ccccc21 | 8.91%
92 | CSc1ccc(OC2CCN(Cc3ccccc3)CC2)cc1 | 44.5%
93 | O=C(Nc1cccc(F)c1)N(Cc1ccc(Cl)cc1)CC(O)C(F)(F)F (stereo not drawn) | 49.9%
94 | CCN(CC)c1ccc(C(=S)NC2CCCCC2)cc1 | 62%
95 | CC1(C)CC(C(CCN(Cc2ccccc2)C(=O)c2ccco2)c2ccc(F)cc2)CCO1 (stereo not drawn) | -3.84%
96 | Cc1cccc(-n2ncc3c(N(C)Cc4ccccc4)ncnc32)c1 | 8.71%
97 | O=C(COC(=O)C1(c2ccc(Cl)cc2)CCCC1)Nc1ncc(C(F)(F)F)cc1Cl | 15.7%
98 | CC(=O)N(Cc1ccc(F)cc1)C1=C(NCCc2ccccc2)C(=O)c2ccccc2C1=O | 28.8%
99 | CNC(=O)c1nnsc1S(=O)(=O)c1ccc(Cl)cc1 | 67.7%
100 | CC(C)Cc1ccc(C(C)C(=O)OCC(=O)c2c[nH]c3ccccc23)cc1 (stereo not drawn) | 19.1%
101 | CC(OC(=O)c1ccccc1Nc1ccc(SC(F)F)cc1)C(N)=O (stereo not drawn) | 54%
102 | Clc1ccc(Cn2c(/C=C/c3ccco3)nc3ccccc32)cc1 | -11.2%
103 | c1ccc(CNc2nc(-c3cccs3)nc3ccccc23)cc1 | 19.9%
104 | N#Cc1sc2nc(C3CC3)cc(-c3ccc(Cl)cc3)c2c1N | -15.2%
105 | CC(C)Cn1c(/C=N/Nc2nc3ccccc3[nH]2)nc2ccccc21 | 46.9%
106 | O=C(/C=C/c1ccccc1[N+](=O)[O-])c1ccccc1Br | 59.9%
107 | Cc1cc(C)nc(N2CCCC(C(=O)NCc3cccs3)C2)n1 (stereo not drawn) | 4.83%
108 | CC12CC3CC(C)(C1)CC(C(=O)NC(=S)N1CCCCC1)(C3)C2 | 77.2%
